Measured values as given in PubChem BioAssay AID1745853 (National Center for Advancing Translational Sciences (NCATS), 2022).
The list shows a part of the results. Further columns of the screen follow, without active or inactive calls.

What was measured:
Assay in all cases: Primary Screen for Target Class Profiling of Small Molecule Inhibitors of Methyltransferases
[1] = biological target: Glycine N-methyltransferase (Homo sapiens) (UniProt Q14749); details: purified enzyme, MTase-Glo SAH luminescence; measured here: GNMT inhibition; at 40 µM; stronger effect = lower value
In short: (§1)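 Each enzyme was reacted with SAM and its substrate, with compounds tested once at 40 uM; SAH formed was read by MTase-Glo luminescence.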

[2] = biological target: Guanidinoacetate N-methyltransferase (Homo sapiens) (UniProt Q14353); details: purified enzyme, MTase-Glo SAH luminescence; measured here: GAMT inhibition; at 40 µM; stronger effect = lower value
In short: as §1

[3] = biological target: Histamine N-methyltransferase (Homo sapiens) (UniProt P50135); details: purified enzyme, MTase-Glo SAH luminescence; measured here: HNMT inhibition; at 40 µM; stronger effect = lower value
In short: as §1

[4] = biological target: Nicotinamide N-methyltransferase (Homo sapiens) (UniProt P40261); details: purified enzyme, MTase-Glo SAH luminescence; measured here: NNMT inhibition; at 40 µM; stronger effect = lower value
In short: as §1

[5] = biological target: Phenylethanolamine N-methyltransferase (Homo sapiens) (UniProt P11086); details: purified enzyme, MTase-Glo SAH luminescence; measured here: PNMT inhibition; at 40 µM; stronger effect = lower value
In short: as §1
% is set by controls: 0 for no effect and ±100 for the full control effect.

Compound | activity change, negative = inhibition [1] | activity change, negative = inhibition [2] | activity change, negative = inhibition [3] | activity change, negative = inhibition [4] | activity change, negative = inhibition [5]
COc1ccccc1CN1C(=O)c2nc3ccccc3n2CC1(C)C(=O)NCc1ccccc1 (configuration not stated) | -4.18% | 0% | 4.11% | 5.21% | -1.53%
CCOC(=O)C1CCN(C(=O)CN(C)S(=O)(=O)c2ccc3[nH]c4c(c3c2)CCCC4)CC1 | -8.37% | -4.75% | -1.18% | -4.13% | -5.96%
O=C(Cc1cccs1)NC1CC(c2cc(N3CCC(O)C3)ncn2)C1 (configuration not stated) | -3.08% | -4.78% | 0.518% | -10.5% | 9.91%
c1ccc(-c2nnc([C@H]3CCN(C4CCC4)C3)o2)cc1 | -10.9% | -5.27% | -26% | -12.8% | -4.02%
O=c1[nH]c2ccc(S(=O)(=O)N3CCc4ccccc4C3)cc2[nH]1 | 6.44% | 0% | 4.74% | 1.93% | -1.84%
CC(C)Cn1c(=O)c2ccc(Cl)cc2n2c(SCC(=O)Nc3cccc(Cl)c3)nnc12 | -6.8% | 0.808% | -4.45% | -9.82% | -5.55%
O=c1c2ccccc2n2c(=O)n(Cc3cccc(Cl)c3)nc2n1Cc1ccc(F)cc1 | 9.14% | 4.03% | 9.29% | 1.84% | 3.72%
C=C(C)C1CC[C@]2(C(=O)O)CC[C@]3(C(=O)O)[C@H](CCC4[C@@]5(C)CC[C@H](O)C(C)(C)C5CC[C@]43C)C12 (some centres not stated) | 0.254% | -0.738% | 5.11% | -11.1% | -8%
CCCn1c(=O)c2ccccc2n2c(=O)n(CC(=O)Nc3ccc4c(c3)OCCO4)nc12 | 0.126% | 0% | 3.28% | -1.31% | 2.22%
CC1CCC(NC(=O)Cn2c(=O)oc3cc(S(=O)(=O)N4CCCC4)ccc32)CC1 (configuration not stated) | -3.65% | 0% | 4.22% | -2.28% | -23.6%
NC(=O)[C@@H]1C[C@H](Oc2cccnc2)CN1C(=O)C1CCCCC1 | -0.589% | 2.41% | 0.788% | 0.565% | -3.44%
CCn1cc(C(=O)O)c(=O)c2ccc(C)nc21 | 3.4% | 12.3% | 4.71% | 1.81% | 11.7%
CC(=O)O[C@H]1CC(C)(C)CC2[C@]13CO[C@@]21CCC2[C@@]4(C)CC[C@H](O[C@@H]5OC[C@H](O[C@@H]6O[C@H](CO)[C@@H](O)[C@H](O)[C@H]6O[C@@H]6OC[C@@H](O)[C@H](O)[C@H]6O)[C@H](O)[C@H]5O[C@@H]5O[C@H](CO)[C@@H](O)[C@H](O)[C@H]5O)[C@@](C)(CO)C4CC[C@@]2(C)[C@]1(C)C[C@H]3O (some centres not stated) | -1.15% | -5.36% | 6.15% | -12.1% | 4.09%
CN1CCCN(C(=O)CN2CC3CC(C2)[C@H]2CCCC(=O)N2C3)CC1 (some centres not stated) | -2.29% | -2.09% | -2.31% | -5.59% | -3.27%
CN1C(=O)c2cc(C(=O)N3CCN(c4ccccc4)CC3)nn2CC1(C)C(=O)NCc1ccccc1 (configuration not stated) | 6.25% | 0.489% | 9.3% | 13.4% | 8.93%
CCC(C)NC(=O)c1ccc2c(=O)n(C(C)C)c3nn(CC(=O)Nc4cc(C)cc(C)c4)c(=O)n3c2c1 (configuration not stated) | 0.841% | -1.94% | -1.42% | -4.64% | -4.59%
CC[C@@]1(O)CCN(C(=O)c2ccccc2OCc2ccccc2)C[C@H]1O | 2.71% | 0.041% | 0.165% | -0.669% | -13.8%
COc1ccccc1CNC(=O)C1(C)Cn2nc(-c3ccccc3)cc2C(=O)N1c1ccc(F)cc1 (configuration not stated) | 0.243% | 2.56% | 1.64% | 2.81% | -5.25%
CCCCn1ccc(N2CCC(c3ccccc3)CC2)c(Cl)c1=O | -15.6% | -9.78% | 3.35% | -23.4% | -7.49%

Compound | activity change, negative = inhibition [1] | activity change, negative = inhibition [2] | activity change, negative = inhibition [3] | activity change, negative = inhibition [4] | activity change, negative = inhibition [5]
CN(C(=O)c1cccn1C)C1CCc2nn(C)c(=O)n2CC1 (configuration not stated) | -2.04% | 1.57% | -2.98% | -0.157% | -13.3%
Cc1cccc(-c2nnn3c2nc(N2CCCC2)c2cc(Cl)ccc23)c1 | -1.66% | -1.79% | 2.69% | 5.81% | -1.56%
C#CCN(C)Cc1ccccc1 | -3.63% | 2.97% | -1.06% | -9.96% | -0.526%
COc1ccc(N2C(=O)c3cc4ccccc4n3CC2(C)C(=O)NCCC(C)C)cc1 (configuration not stated) | 1.04% | 4.73% | 2.99% | 7.02% | -2.2%
O=c1[nH]c2ccccc2c2ccccc12 | -7.17% | 9.09% | 1.57% | -9.77% | 1.19%
CC(C)OCCCN1C(=O)c2ccc(-c3ccccc3)n2CC1(C)C(=O)NC1CCCCC1 (configuration not stated) | 4.42% | 6.28% | 2.44% | 4.41% | 2.34%
O=C(N[C@H](Cc1ccccc1)C(=O)O)c1sc2cc(F)ccc2c1Cl | -10.8% | 0.435% | 8.75% | -23.1% | -0.768%
CC1(C(=O)NCc2ccccc2)Cn2c(cc3ccccc32)C(=O)N1C1CCN(Cc2ccccc2)CC1 (configuration not stated) | -0.579% | -0.467% | 4.52% | -0.849% | -1.12%
C=C1C(=O)O[C@@H]2[C@H]1CCC(C)=C(CCC(=O)O)[C@@]2(C)O | 2% | 1.93% | 9.69% | -8.2% | 1.24%
CCCn1c(=O)c2ccc(C(=O)NC3CCCC3)cc2n2c(=O)n(CC(=O)NCc3ccccc3)nc12 | 4.91% | 0% | 8.02% | -0.271% | 5.81%
CC1(C(=O)NC2CCCC2)Cn2c(nc3ccccc32)C(=O)N1Cc1cccc(Cl)c1 (configuration not stated) | 3.67% | 0% | 6.46% | 6.97% | 2.71%
Cc1ccc(CNC(=O)CNC(=O)C2(C)Cn3c(cc4ccccc43)C(=O)N2C)cc1 (configuration not stated) | -1.88% | 4.75% | -0.858% | 6.35% | -1.16%
CCc1ccc(NC(=O)CSc2nnc3n(Cc4ccc(C)cc4)c(=O)c4ccccc4n23)cc1 | 5.88% | 0.101% | 13.2% | 8% | 5.37%
O=S(=O)(c1ccccc1F)N1CC(c2nc(Cc3ccccc3)no2)C1 | -4.5% | 0.504% | 1.75% | -0.533% | -2.62%
CN(Cc1ccc(C(=O)O)cc1)c1ccc(OCc2c(-c3c(Cl)cccc3Cl)noc2C2CC2)nc1C(F)(F)F | -25.8% | -12.1% | -8.49% | -84% | -5.75%
Cc1ccc(CNC(=O)C2(C)Cn3nc(C(=O)NCCN4CCCC4)cc3C(=O)N2C)cc1 (configuration not stated) | 7.35% | 0.486% | 2.43% | 7.37% | 4.42%
COC(=O)c1ncn2c1C(=O)N(c1cccc(SC)c1)C(C)(C(=O)NC1CCCCC1)C2 (configuration not stated) | 1.08% | 0% | -3.36% | 0.268% | 2.26%
Cc1ccc(Cn2c(=O)c3ccc(C(=O)NCC(C)C)cc3n3c(=O)n(C)nc23)cc1 | -1.15% | 4.16% | 0.571% | 2.5% | 1.33%
CCc1cc2c(cc3n2CC(C)(C(=O)NC2CCCCC2)N(CCN2CCN(C)CC2)C3=O)s1 (configuration not stated) | 3.51% | 0.56% | 4.94% | 10.7% | 3.79%

Compound | activity change, negative = inhibition [1] | activity change, negative = inhibition [2] | activity change, negative = inhibition [3] | activity change, negative = inhibition [4] | activity change, negative = inhibition [5]
CC(=O)OC12COC1CC(O)C1(C)C(=O)C(O)C3=C(C)C(OC(=O)C(O)C(NC(=O)OC(C)(C)C)c4ccccc4)CC(O)(C(OC(=O)c4ccccc4)C21)C3(C)C (configuration not stated) | -0.484% |  | 0.205% |  | 
COCC(=O)N1CCC(O)(c2csc(CN3CCc4ccccc4C3)n2)CC1 | -4.15% | -1.75% | -1.76% | 1.95% | 0.934%
CCOc1ccc(N2C(=O)c3cc4sc(CC)cc4n3CC2(C)C(=O)NC2CCC(C)CC2)cc1 (configuration not stated) | 5.45% | 0.614% | 10.1% | 6.11% | 2.48%
CC(C)CCNC(=O)C1(C)Cn2c(cc3ccccc32)C(=O)N1Cc1cccc(F)c1 (configuration not stated) | 3.45% | 1.13% | 2.44% | 0.788% | -2.96%
C[C@@H]1CN(C(=O)c2ccc3c(c2)N(C)C(=O)CO3)C[C@@]1(O)C1CCC1 | -2.35% | -1.62% | -0.266% | -1.28% | 2.09%
Cc1cc(C)cc(NC(=O)CCc2nnc3n(Cc4ccc(Cl)cc4)c(=O)c4ccccc4n23)c1 | -0.712% | 1.23% | 7.71% | 6.5% | 0.736%
C[C@H](NC(c1cccc2[nH]c(=O)c(=O)[nH]c12)P(=O)(O)O)c1ccc(Br)cc1 (some centres not stated) | 1.73% | 8.66% | 1.28% | -10.8% | -3.69%
OC[C@H]1O[C@@H](OCCc2ccccc2)[C@H](O[C@@H]2OC[C@](O)(CO)[C@H]2O)[C@@H](O)[C@@H]1O | 4.67% | 3.69% | -0.536% | -8.81% | 3.71%
CCCOCCNC(=O)c1c(C)noc1-c1ccc(OC(F)(F)F)cc1 | 0.012% | -0.196% | 0.694% | -0.106% | 6.59%
COc1cc(Nc2nc(SCC(=O)NCCC(C)C)nc3ccccc23)cc(OC)c1 | -5.65% | 3.18% | -7.25% | -14% | -5.78%
CCOC(=O)c1cc2n(n1)CC(C)(C(=O)NCc1ccc(F)cc1)N(c1ccc(C)cc1C)C2=O (configuration not stated) | -4.62% | 0.327% | -8.53% | -10.3% | -4.76%
Cc1cccc(Cn2nc3n(C)c(=O)c4ccc(C(=O)NC5CCCCC5)cc4n3c2=O)c1 | 2.5% | 0% | 6.4% | 6.53% | 4.83%
CC(C)Cn1c(=O)c2ccccc2n2c(CCC(=O)NCCc3ccc(Cl)cc3)nnc12 | -11.7% | 2.74% | -0.821% | -30% | -4.78%
Cc1cccc(-c2nnn3c2nc(NCc2ccc(F)cc2)c2ccccc23)c1 | -1.95% | 0% | 1.4% | 4.92% | -3.28%
Cc1cc(C(=O)N[C@H]2[C@H](O)[C@H](O)C[C@@H]2c2cccnc2)n(C)n1 | -3.93% | -7.03% | -4.28% | -4.59% | -4.65%
CCCN1C(=O)c2c(C(=O)NCc3cccc(C)c3)ncn2CC1(C)C(=O)NCc1ccc(OC)cc1 (configuration not stated) | 1.58% | 0% | -0.061% | 7.44% | 5.2%
C[C@]1(O)CCN(C(=O)c2cccc(Cn3cccn3)c2)C[C@@H]1O | -5.05% | -8.24% | -2.21% | -7.48% | -5.22%
CC(=O)Nc1ccc(CC(=O)N2CCC3(CCc4nn(Cc5ccccc5)c(=O)n4CC3)CC2)cc1 | -2.16% | 0.014% | 3.1% | -2.93% | 1.6%
CS(=O)(=O)N1CCC(C2CCN(C(=O)NC3CCCC3)C2)CC1 (configuration not stated) | 2.75% | -2.19% | 1.62% | -3.08% | -8.32%
